In PubChem BioAssay AID624296 (National Center for Advancing Translational Sciences (NCATS), 2012):
Screen size: about 350,000 compounds; about 9,900 (2.8%) were called active. Inconclusive results, whose numbers are uncertain, are shown with a selection of clear calls. The call rests on the fitted dose curve; in most records, active means well fitted activation curve with a large enough effect; inconclusive means small, poorly fitted or top-dose-only effect; inactive means no such curve, though single readings can be large or run the other way. No potency is given beside an inconclusive call; the fits are too rough.

Experiment: A quantitative high throughput screen for small molecules that induce DNA re-replication in MCF 10a normal breast cells. Further: nearly all actives have a fitted effect of over 50% in size. On activity, positive = re-replication: % of control where 0% means no effect.
Conditions: MCF 10A DNA re-replication, Hoechst nuclear intensity, 48 h; activity, positive = re-replication: at 46.1 µM (top of the series)
Potency means the concentration at half of the fitted maximal effect; tags describe the fitted curve by direction and shape.

Q: For `COc1ccccc1N=c1scc(-c2ccc3c(c2)NC(=O)CO3)n1CC1CCCO1` (stereo not given), which Potency is on record?
A: inconclusive [activator, partial curve, poor fit]

Q: Which Potency does the source give for `Nc1nc(N)c(Cc2ccc(Cl)cc2Cl)c(N)n1` here?
A: inconclusive [activator, single point]

Q: Which “activity, positive = re-replication” value does the source give for `CC(C)(C)c1ccc(-n2ncc3c2CCCC3NC(=O)CCn2cncn2)cc1` (stereo not given) here?
A: inactive: 8.52%

Q: Which “activity, positive = re-replication” value does the source give for `NC1CCN(c2cccc(Cl)n2)CC1` here?
A: inactive: 1.64%

Q: Which “activity, positive = re-replication” value does the source give for `Cc1ccc(C(C(=O)NCC2CCCO2)N(C(=O)c2snc(C(N)=O)c2N)c2ccc(C)c(C)c2)o1` (stereo not given) here?
A: inactive: 9.63%

Q: With `Cc1c(Cl)cnc(NC(=O)COC(=O)c2cccc(S(=O)(=O)N3c4ccccc4CC3C)c2)c1Cl` (stereo not given) as the compound, how does the Potency read?
A: inconclusive [activator, partial curve, poor fit]

Q: Which Potency does the source give for `COc1ccc(-c2c(C(C)=O)c(C)nc3sc4c(c23)NC(c2ccccc2)NC4=O)cc1` (stereo not given) here?
A: inconclusive [activator, single point]

Q: For `CCOc1nc(NCCC2=CCCCC2)nc(N2CCOCC2)n1`, which Potency is on record?
A: active: 20.6 µM

Q: With `COc1ccc(NC(=O)/C(Cl)=C(/Cl)S(=O)Cc2ccccc2)cn1` (stereo not given) as the compound, how does the Potency read?
A: inconclusive [activator, full curve, poor fit]

Q: For `Cc1ccc(N2C(=O)C3C4C=CC(CNC(=S)Nc5ccc(F)cc5)(O4)C3C2=O)cc1` (stereo not given), which Potency is on record?
A: inconclusive [activator, partial curve, poor fit]

Q: With `COc1ccc(F)cc1S(=O)(=O)N1CCN(C(=O)c2ccco2)CC1` as the compound, how does the Potency read?
A: inconclusive [activator, single point]

Q: Which Potency does the source give for `O=C(C1=C(O)C(=O)N(c2nc3ccc(Cl)cc3s2)C1c1ccco1)c1ccco1` (stereo not given) here?
A: active: 13 µM

Q: Which Potency does the source give for `CC(C)(C)OC(=O)NCCc1nnc(SCC(=O)c2ccc(Cl)cc2)o1` here?
A: inconclusive [activator, partial curve, poor fit]

Q: For `Cc1ccc(NC(=O)CSc2nnc(CNC(=O)c3ccco3)n2C)cc1`, which Potency is on record?
A: inconclusive [activator, partial curve, poor fit]

Q: With `CCOc1ccc(NC(=O)CSc2nc(-c3cccs3)cc(C(F)(F)F)n2)c([N+](=O)[O-])c1` as the compound, how does the Potency read?
A: active: 11.6 µM

Q: For `COc1cc2c(-c3ccc4cc[nH]c4c3)c(-c3ccsc3)oc(=O)c2cc1OC`, which Potency is on record?
A: inconclusive [activator, partial curve, poor fit]

Q: Which Potency does the source give for `COc1ccc(NC(=O)/C(Cl)=C(/Cl)S(=O)Cc2ccc(Cl)cc2)cn1` (stereo not given) here?
A: inconclusive [activator, full curve, poor fit]

Q: With `Cc1c(CN2CCC(CO)(CCOc3ccccc3)CC2)[nH]c2c(Cl)cccc12` as the compound, how does the Potency read?
A: inconclusive [activator, single point]

Q: For `CCO[C@@H]1OC(C(=O)Nc2ccccc2)=C[C@H](c2csc3ccccc23)[C@H]1CCCO`, which Potency is on record?
A: inconclusive [activator, partial curve, poor fit]

Q: For `CC(C)C(=O)Nc1ccc(-c2ccc3nncn3n2)cc1`, which “activity, positive = re-replication” value is on record?
A: inactive: -0.296%

Q: Which Potency does the source give for `Cc1ccc(C)c(N2CCN(C(=O)COc3cc(=O)n(C)c4ccccc34)CC2)c1` here?
A: inconclusive [activator, partial curve, poor fit]

Q: Which Potency does the source give for `O=C(COc1ccccc1-c1ccccc1)N/N=C/c1cccc2ccccc12` here?
A: active: 0.461 µM

Q: Which “activity, positive = re-replication” value does the source give for `CN(C(=O)c1cccc(NC(=O)Cc2ccc(NC(=O)C3CCN(C(=O)C4CCCCC4)CC3)cc2)c1)C1CCC1` here?
A: inactive: -2.91%

Q: For `Cc1ccc(NC(=O)c2cc(-c3ccccc3)nn2-c2ccccc2)cc1`, which Potency is on record?
A: active: 20.6 µM

Q: For `Cc1ccc(C(=O)Oc2ccc3c(c2)ncn3C)cc1`, which Potency is on record?
A: inconclusive [activator, single point]

Q: For `O=c1c2ccccc2nc(/C=C/c2ccc(Br)cc2)n1CCO`, which Potency is on record?
A: inconclusive [activator, single point]

Q: With `Cc1c(C(=O)Nc2ccccc2N2CCN(C)CC2)oc2ccc(F)cc12` as the compound, how does the Potency read?
A: inconclusive [activator, single point]

Q: Which Potency does the source give for `O=C(CSc1nc(C2CC2)nc2ccccc12)Nc1ccc2c(c1)OCCO2` here?
A: inconclusive [activator, partial curve, poor fit]

Q: With `Cc1cc(C(=O)CN2C(=O)C(=O)N(Cc3ccccc3)C2=O)c(C)n1-c1ccc2c(c1)OCCO2` as the compound, how does the Potency read?
A: inconclusive [activator, single point]

Q: Which Potency does the source give for `N#Cc1c(C(F)(F)F)cc(-c2ccccc2)nc1SCc1nc(N)nc(N2CCOCC2)n1` here?
A: inconclusive [activator, single point]

Q: For `Cc1ccc(NC(=O)CSCC(=O)Nc2cccc3ncccc23)cc1`, which Potency is on record?
A: inconclusive [activator, single point]

Q: Which “activity, positive = re-replication” value does the source give for `COc1cc(/C=C/C(=O)N2CCCN(C(=O)/C=C/c3cc(OC)c(OC)c(OC)c3)CC2)cc(OC)c1OC` here?
A: inactive: -7.52%

Q: With `CC(=O)C[C@H](O)CC(=O)[C@H]1OC(=O)CCCCCCCc2ccccc21` as the compound, how does the Potency read?
A: inconclusive [activator, full curve]

Q: For `Cc1ccc(N=Nc2c(O)n(CN3CCOCC3)c3ccccc23)cc1`, which “activity, positive = re-replication” value is on record?
A: inactive: 1.99%

Q: For `CC1=C(C(=O)OCC2CCCO2)C(c2ccccc2)C2=C(CC(C)(C)CC2=O)N1` (stereo not given), which “activity, positive = re-replication” value is on record?
A: inactive: -11.3%

Q: Which Potency does the source give for `N#Cc1ccc(-c2csc(NNC(=O)c3ccc(Br)cc3)n2)cc1` here?
A: inconclusive [activator, partial curve, poor fit]

Q: Which Potency does the source give for `CC(C)NC(C(=O)Nc1cc(Cl)cc(Cl)c1)c1ccccc1` (stereo not given) here?
A: inconclusive [activator, single point]

Q: For `O=C(C[C@H]1C[C@H](C(=O)N2CCCCC2)[C@@]2(CCc3ccccc3)c3[nH]c4ccc(Cl)cc4c3CCN2C1=O)NCc1ccco1`, which Potency is on record?
A: inconclusive [activator, partial curve, poor fit]

Q: Which Potency does the source give for `O=C(N/N=C/c1ccc(Cl)c([N+](=O)[O-])c1)c1cc(-c2ccc3c4c(cccc24)CC3)n[nH]1` here?
A: inconclusive [activator, full curve, poor fit]

Q: For `Cc1ccc(OCCn2c(SCCO)nc3c(N)ncnc32)cc1`, which “activity, positive = re-replication” value is on record?
A: inactive: -0.812%

Q: With `Cc1c[nH]c2cccc(OCC(O)CNC(C)(C)C)c12` (stereo not given) as the compound, how does the “activity, positive = re-replication” value read?
A: inactive: -5.59%

Q: With `O=C(c1csc2c1CCCC2)N1CCN(c2cccc(C(F)(F)F)c2)CC1` as the compound, how does the Potency read?
A: inconclusive [activator, single point]

Q: Which Potency does the source give for `CC(C)(C)C(O)(CC#CCN1CCCC1)c1ccccc1` (stereo not given) here?
A: inconclusive [activator, single point]

Q: With `COc1ccc(CN2CCN(Cc3c[nH]c4ccccc34)CC2)cc1` as the compound, how does the “activity, positive = re-replication” value read?
A: inactive: 0.592%

Q: For `Cc1nc(C(=O)NC2CCCCC2)sc1C1(C)CC(c2cccc([N+](=O)[O-])c2)=NO1` (stereo not given), which Potency is on record?
A: inconclusive [activator, partial curve, poor fit]

Q: Which Potency does the source give for `O=C(CN1c2cccc3cccc(c23)S1(=O)=O)Nc1ccccc1` here?
A: inconclusive [activator, partial curve]

Q: For `CC(=O)c1ccc(N(C(=O)c2ccco2)C(C(=O)NC2CCCC2)c2ccc(N3CCOCC3)cc2)cc1` (stereo not given), which Potency is on record?
A: inconclusive [activator, single point]

Q: With `Cc1ccc(C(=O)Nc2ccccc2C(=O)N2CC3(C)CC2CC(C)(C)C3)cc1` (stereo not given) as the compound, how does the Potency read?
A: active: 25.9 µM

Q: With `CC(C)n1c(SCC(=O)N2c3ccccc3Sc3ccccc32)nc2c1c(=O)n(C)c(=O)n2C` as the compound, how does the Potency read?
A: inconclusive [activator, single point]

Q: With `CCOC(=S)SCC(=O)Nc1nccs1` as the compound, how does the Potency read?
A: inconclusive [activator, single point]

Q: With `CCc1cc2c(CN3CCN(CC)CC3)cc(=O)oc2cc1O` as the compound, how does the Potency read?
A: inconclusive [activator, single point]

Q: With `O=C(CCc1ccc(Oc2cc([N+](=O)[O-])cc([N+](=O)[O-])c2)cc1)N1CCCCCC1` as the compound, how does the Potency read?
A: inconclusive [activator, single point]

Q: For `O=C1/C(=C\c2ccccc2)CCc2c1[nH]c1ccccc21`, which Potency is on record?
A: inconclusive [activator, full curve]

Q: With `O=C(NCCCN1CCCC1)c1ccc2c(c1)N(Cc1ccc(F)cc1)C(=O)c1ccccc1S2=O` (stereo not given) as the compound, how does the “activity, positive = re-replication” value read?
A: inactive: 8.56%

Q: Which Potency does the source give for `Nc1c(S(=O)(=O)c2ccccc2)c2nc3ccccc3nc2n1/N=C/c1cccc(O)c1` here?
A: active: 0.92 µM

Q: With `c1ccc2sc(NC3=NCN(C4CCCCCC4)CN3)nc2c1` as the compound, how does the “activity, positive = re-replication” value read?
A: inactive: 2.23%

Q: Which Potency does the source give for `Cn1nc(C(F)(F)F)c(C#N)c1N1CCN(c2ccccc2F)CC1` here?
A: inconclusive [activator, single point]

Q: With `CCN(CC)c1ccc2cc(-c3nnc(-c4ccccc4)o3)c(=O)oc2c1` as the compound, how does the Potency read?
A: inconclusive [activator, full curve]

Q: Which Potency does the source give for `CCn1cc(/C=N/N=C2\CCC3C4CCc5cc(O)ccc5C4CC[C@]23C)c(C)n1` (stereo not given in full) here?
A: inconclusive [activator, single point]

Q: For `Cc1ccc2c(c1)C(=C(C#N)C#N)CCN2`, which “activity, positive = re-replication” value is on record?
A: inactive: 11.2%

Q: For `Clc1ccc(OCCCN2CCCCC2)c(Br)c1`, which Potency is on record?
A: inconclusive [activator, single point]

Q: For `C/C(=C\c1ccccc1)CN1CCN(c2ccccc2)CC1`, which Potency is on record?
A: inconclusive [activator, single point]

Q: With `CCOC(=O)c1c(NC(=O)CSc2nnc(C)c(=O)[nH]2)sc(C)c1-c1ccc(C)cc1` as the compound, how does the Potency read?
A: inconclusive [activator, single point]

Q: Which “activity, positive = re-replication” value does the source give for `CCn1c(C)nnc1SCC(=O)Nc1nccs1` here?
A: inactive: 1.34%

Q: For `CCCCNC(=O)c1onc(CSc2cccc3ccccc23)c1C(=O)O`, which Potency is on record?
A: inconclusive [activator, single point]
